In the supplement of paper PMC11417369:
± gives the standard deviation of the averaged measurements. This is one part of the list.

Each sequence was assayed on PfAP2-I AP2 domain 3 (GST-tagged) (assay: gcPBM binding intensity (ln(normalized median fluorescence intensity)); higher = stronger DNA binding).
Method in brief: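 Using an Agilent 4 × 180k array, primer-extended double-stranded 36-bp intergenic genomic probes and negative controls were exposed for 1 h to GST-fused P. falciparum DNA-binding domains expressed in E. coli. Binding was carried out in 1× PBS with 1% milk, 0.2 mg/ml BSA, 0.5% salmon testes DNA and 0.03% Triton X-100, and protein was detected with Alexa488 anti-GST antibody and a 488 nm scan. Binding intensity is the highest Masliner-normalised natural-log median intensity across replicate spots of either probe orientation.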

| Sequence | gcPBM binding intensity (ln) |
| --- | --- |
| GATTAATTTAAAAAATGTACATTTTATTGTATAACC [XGTACX_site5539] | 7.79 ± 0.47 |
| ACAATATGTATATATATATATATGCAAATGTATAAA [CACACA_negctrl_site53] | 7.88 ± 0.5 |
| CCAAGAAACCAAAAAAGTACATACATGGTTATAATT [XGTACX_site4249] | 7.88 ± 0.36 |
| TGAACTCATAGATTTAGTACATATATAAAAAAATTC [XGTACX_site1692] | 7.66 ± 0.47 |
| ATATTAAATTCAATTTAATGTTTTGTGAATTTTAGA [CACACA_negctrl_site1421] | 7.32 ± 0.42 |
| TTAAATGGAAAAATATGTACATATATATATATATTT [XGTACX_site2286] | 7.86 ± 0.43 |
| TTTGTTAAAAATATATTATGAATAAAAATATATTTT [CACACA_negctrl_site170] | 7.31 ± 0.61 |
| TACAAAATAACTAGCACACATATGTATAAACATATA [CACACA_site5948] | 7.92 ± 0.28 |
| TATGTCAATCAAGCAAGTACATATATATATAAATAT [XGTACX_site7554] | 7.66 ± 0.33 |
| AATTATATTACGAAATGTACATATAATAATGTATAT [XGTACX_site4410] | 7.79 ± 0.26 |
| GCCATTGTACCATCCACACACATATATATATGTATA [CACACA_site2704] | 8.6 ± 0.65 |
| TTCAAAACTTAAAATCGTACAAGACAATTATTATAT [XGTACX_site6626] | 7.55 ± 0.37 |
| TTAAAACATAAAAAAAGTACATACAAATATATATAA [XGTACX_site789] | 7.83 ± 0.4 |
| CATATATATTTATGTACACACATTAATAAAAAAAAA [CACACA_site5741] | 8.09 ± 0.099 |
| CTTTTAATATTAAGATGTACTTAGAATTTTTTTTTT [XGTACX_site8338] | 7.53 ± 0.54 |
| TGTAGAGCGCAAAGTAGTACTACAAATTATGGAGGG [XGTACX_site3022] | 8.38 ± 0.46 |
| AACAGCATATCACATTTCTTCAAAAAAAAATAAAAT [CACACA_negctrl_site733] | 7.62 ± 0.54 |
| ATATATATAAATAATTGTACTTAAAAAAAAAAAAGG [XGTACX_site6847] | 8.02 ± 0.26 |
| TAAAAAAAGAGATATTGTACACAAAAAAATTTTACT [XGTACX_site1342] | 7.82 ± 0.58 |

| Sequence | gcPBM binding intensity (ln) |
| --- | --- |
| AAGTTCAAAATAAATGGTACAGAAGTATATATATCA [XGTACX_site174] | 7.71 ± 0.64 |
| TAGAAAAAAAAATACATACACACAATATATTTATTT [CACACA_site3123] | 7.33 ± 0.67 |
| AAAATCTAGGTATTTATACACACTAATATAATATAC [CACACA_site8108] | 7.74 ± 0.52 |
| TATATATTTGTGAAAATATTAAAATAAATAAATAAA [CACACA_negctrl_site295] | 7.76 ± 0.55 |
| AACCCTTTTGATTTTTCTTTTTTTTTTTTTTTAAAT [CACACA_negctrl_site1667] | 7.5 ± 0.69 |
| CATATAAGACAAAAGGTGCAATTTTAATGCTTTTAT [GTGCAC_site9432] | 9.99 ± 0.071 |
| TAGTAAAATGGAACACGTACATATATCTATGTATAA [XGTACX_site6103] | 7.73 ± 0.51 |
| ACAGTTTGTCTGAGTAGTACATAAATACTTGAAAGG [XGTACX_site7792] | 7.93 ± 0.52 |
| AGAAGGATATTATGAAGTACACATATTGTATATGGT [XGTACX_site7503] | 7.75 ± 0.43 |
| CCATATATAATGACATGTACTCAAAAAAAAAAAAAA [XGTACX_site685] | 8.04 ± 0.52 |
| TAATTCAAACGTGTATGTATATTACTCGAAGAAATA [CACACA_negctrl_site1779] | 7.22 ± 0.61 |
| TTTCAAGGATTTAATTTATGGAAACCTTCTTCATTT [GTGCAC_negctrl_site504] | 7.21 ± 0.53 |
| TTTTTAAAAAAAAATAGAGAGTCAAAGTATGTGGCG [CACACA_negctrl_site194] | 7.95 ± 0.61 |
| TTTCTCTTTTTTTGGGGTACAACCAATCCTATAATA [XGTACX_site297] | 8.23 ± 0.33 |
| ATACATATATATATATGTACATATATTTATATTTAT [XGTACX_site3155] | 7.74 ± 0.33 |
| ACAAATAAAAAAATTACACACATATAAAATATAGAT [CACACA_site6756] | 7.53 ± 0.51 |
| TATGAGAACAAACATTGTACAATAAAAAGTAGATAT [XGTACX_site920] | 8.2 ± 0.73 |
| AGGAAAATAATTAAAGCATGCTCATTATGAAATATA [TGCATGCA_site855] | 7.55 ± 0.71 |
| AATACATGAACTTAAAGTACTAAAAAAAAAATAATA [XGTACX_site1956] | 7.83 ± 0.4 |

| Sequence | gcPBM binding intensity (ln) |
| --- | --- |
| TACCCACTAAAATACACACACACACCCACATATATA [CACACA_site6141] | 8.04 ± 0.26 |
| AATTTGAATATTTGATGTACAAAGTTTTTTAATGTT [XGTACX_site3249] | 7.59 ± 0.4 |
| TCTTACACTAATAAATGTACATACAAAAAATCTATT [XGTACX_site1379] | 7.91 ± 0.31 |
| ATAAATATAACATATTGTACCCTTAAAAAGGAACAA [XGTACX_site352] | 7.62 ± 0.18 |
| AAATGTATAATTTTTTAATACACTTATTTAAAATAA [CACACA_negctrl_site797] | 7.84 ± 0.35 |
| GTACCAACAGCACTACTTCTCGCCATTTTCTTGTAG [XGTACX_negctrl_site97] | 8.95 ± 0.4 |
| GAGAGGATAGTTCACAGTACCCAGTAACTCTACGGA [XGTACX_site4876] | 7.46 ± 0.57 |
| CTCAAATAACTTTTTACACACATTATTTGAAATAAG [CACACA_site6722] | 7.79 ± 0.43 |
| CAGAATACATACATTACACACAAATTTAAGTATATA [CACACA_site1781] | 7.54 ± 0.47 |
| ATATGAATGATCGTACGTACTTACATATTTATAAAG [XGTACX_site8041] | 7.86 ± 0.42 |
| ATATCTATAATAAACACACAAATAGATATAACATAT [CACACA_site7702] | 7.82 ± 0.66 |
| AAAAAAAAATTAAAAACACACATATATATATATATA [CACACA_site1580] | 9.41 ± 0.11 |
| TAAGTATATTTCTGCACACAAAAAAAAAAACCAAAA [CACACA_site4056] | 8.815 ± 0.035 |
| AAAATTTAATATGAATGTACATAAAAAAAAAAAAAA [XGTACX_site6719] | 8.13 ± 0.45 |
| TATATATATATATATGTGCACATTTATTGCCTTTGC | 9.76 |
| TATAAATAAAGACTTTTTTCTAACTTTTTTTTGTAT [CACACA_negctrl_site1015] | 7.41 ± 0.64 |
| ATACACAAATGCATACGTACATATATATATATATAT [XGTACX_site3504] | 9.34 ± 0.57 |
| AAAAAAAAAAAAACAACACACAATGTTTTATTTTAC [CACACA_site1613] | 7.99 ± 0.57 |
